{"source": "paper PMC12136788", "binders": {"B1": {"name": "chr5:160402147:160402258:-|3pUTR|ENSG00000164609|unk|total|mutant (ssRNA)", "RNA": "GGGAGUUCUACAGUCCGACGAUCAUGGUUUACAUUACCGUUUGUUUUCAUUGUGAUUGCCCCUAUGUAACAAUCAUGAAUAUCCGAUUUUUUAAAUUGCCGAAUAUCCUAAUAUUUACCGCCAGCAGCUGUUACUUUGUUUGUCAACAGAGGAUUGAGCAUCA"}, "B2": {"name": "ENSG00000105355:stop:overlap|stop_codon|ENSG00000105355|stop_codon|NA|stop_codon (ssRNA)", "RNA": "GGGAGUUCUACAGUCCGACGAUCCGUGGCUCGUGGGACCCUUUGCCCCUGGAAUCACUGAGAAAGCCCCGGAGGAGAAGAAGUAGGGGGAGAGGAGAGGACUCAGCGGGCCCCGUCUCUAUAAUGCAGCUGUGCUCUGGAGUCCAACAGAGGAUUGAGCAUCA"}, "B3": {"name": "ENSG00000143799:stop:overlap|stop_codon|ENSG00000143799|stop_codon|NA|stop_codon (ssRNA)", "RNA": "GGGAGUUCUACAGUCCGACGAUCACCAGCAGAAAGUCAAGAAGACAGCGGAAGCUGGAGGAGUGACAGAAAAGAAGCUCUAUUAGCUGACCACGGUUGUUACAAACAGACAGAUGAGAUGGACCAAUCGUAGUCUCCCAAGGCCAACAGAGGAUUGAGCAUCA"}, "B4": {"name": "chr11:95166718:95166819:-|3pUTR|ENSG00000149212|unk|total|mutant (ssRNA)", "RNA": "GGGAGUUCUACAGUCCGACGAUCACAGUUUCCCCUUCCUCUUUCUCUUCACAUUUACUCUUUUCAACCCAAAAUAAGAGACACCGAAAGCAAACCACAGCCAGUUUGGCAUCUUCUCAGUGCUACCCGUACCGGCACAUACACCAACAGAGGAUUGAGCAUCA"}, "B5": {"name": "chr2:43888187:43888297:-|3pUTR|ENSG00000138095|unk|FALSE|unique (ssRNA)", "RNA": "GGGAGUUCUACAGUCCGACGAUCAAAAUGUUAUUCCUUUAUUUAAGAUUCACUUAUUAGUCUGCUGUUUCUCUGAAAAAUUUUAGAGCUAGGUAUAGUGACCGUGAACUUUCUAACGCAUAAUAUUCUGUGAUACAGCCAUUCCAACAGAGGAUUGAGCAUCA"}, "B6": {"name": "chr8:23842320:23842421:-|3pUTR|ENSG00000159167|msi1|FALSE|unique (ssRNA)", "RNA": "GGGAGUUCUACAGUCCGACGAUCUAUGUAUCUACAAUACAUAUAUCUACACAUACAGAAAGAAGCAGUUCUCACAAUGUUGCUAGUUUUUUGCUUCUCUUUCCCCCACCCUACUCCCUCCAAUUCCCCCUUAAACUUCCAAAGCAACAGAGGAUUGAGCAUCA"}, "B7": {"name": "chr10:91630394:91630495:-|CDS|ENSG00000119938|unk|FALSE|unique (ssRNA)", "RNA": "GGGAGUUCUACAGUCCGACGAUCCUUGGACCUUAAUGAUAUCUCCUCUGCCUUAAAACACCACGAGGAGAAAAACUUGAUUUUAGAUUUCCCUCAGCCUUCAACCGAUUACUUAAGUUUCCGGAGCCACUUUCAGAAGAACUUCAACAGAGGAUUGAGCAUCA"}, "B8": {"name": "ENSG00000026025:stop:overlap|stop_codon|ENSG00000026025|stop_codon|NA|stop_codon (ssRNA)", "RNA": "GGGAGUUCUACAGUCCGACGAUCUGGCCCUUGACAUUGAGAUUGCCACCUACAGGAAGCUGCUGGAAGGCGAGGAGAGCAGGUAGGGAACUCAGACUUGGAUGCGUGAACUAAUGGUGACCAUUUGUUAGGCCCUGUGCCACUCAACAGAGGAUUGAGCAUCA"}, "B9": {"name": "chr17:77216858:77216994:+|3pUTR|ENSG00000129657|unk|total|mutant (ssRNA)", "RNA": "GGGAGUUCUACAGUCCGACGAUCUGUUUCUACCUUCCGUACCUUGCCACUCUUUUAAAACGCUGCUGUCAUUUCCCAUUUCUCCGUACUAAUGAUUCUUUGAUUCUCCCUCUAUUAUGUCUUAAUUCACUUUCCUUCCUAAAUCAACAGAGGAUUGAGCAUCA"}, "B10": {"name": "ENSG00000149294:stop:overlap|stop_codon|ENSG00000149294|stop_codon|NA|stop_codon (ssRNA)", "RNA": "GGGAGUUCUACAGUCCGACGAUCCUGCAUCCUACACCUUUGUCUCAUUGCUUUUCUCUGCAGUGACUCUUCUUUUGCUCUGUUAGGAACUUGAACACAAAAAUUAAAUUUGCUUAAAAGCCCAGUUCCUAUGAAAAAGAUCAGCAACAGAGGAUUGAGCAUCA"}, "B11": {"name": "chrX:55006554:55006655:+|CDS|ENSG00000169188|unk|FALSE|unique (ssRNA)", "RNA": "GGGAGUUCUACAGUCCGACGAUCAGGGCGCAAGUGGAUGGACAGCUUGCUCAGUAACUUGGGGUGCCAGUCUGCCUCUCAUGUAGGGCCCUUCAUCGAUAGCUACCGCUGCUUCCAACCAAAGCAGGAGGGGGCCUUCACCUGCAACAGAGGAUUGAGCAUCA"}, "B12": {"name": "ENSG00000198589:be:win_4651|CDS|ENSG00000198589|bound_else_gene|NA|bound_elsewhere_windowed (ssRNA)", "RNA": "GGGAGUUCUACAGUCCGACGAUCAUUUUGGAACCCCAAAAUGAAAGGCAUAGCCAGUCAUGUACAGAAACUGGCAGUGAAAAUGAGAAUGUAUCACUCUCUGAAAUCACACCAGCAGCAUUCAGCACUUUAACUACGGCAUCACAACAGAGGAUUGAGCAUCA"}, "B13": {"name": "chr16:50751694:50751795:+|CDS|ENSG00000083799|unk|FALSE|unique (ssRNA)", "RNA": "GGGAGUUCUACAGUCCGACGAUCGCUUUUUCAGUGUGAUGAAGAUUGUGGCGUGUUUGUUGCAUUGGACAAGCUAGAACUCAUAGAAGAUGAUGACACUGCAUUGGAAAGUGAUUACGCAGGUCCUGGGGACACAAUGCAGGUCAACAGAGGAUUGAGCAUCA"}, "B14": {"name": "chr13:19825080:19825183:-|CDS|ENSG00000132950|unk|total|mutant (ssRNA)", "RNA": "GGGAGUUCUACAGUCCGACGAUCUUUCCGAGAAGAAAAUGAGAAACAAUUAUAUGGAUCGUCAAAUACACUUUUGAAAAAAACCGAGGGAAUCCCAGAAAAAAAGGAAAAGACUUCACAGCUACAGCUUUCAGCCGAAUGUGGCAACAGAGGAUUGAGCAUCA"}}, "note": "Some of the results follow.", "data": [{"target": "T1, UNK ZnF1-6 (called full-length) (human, UniProt Q9C0B0 30-357)", "T1 sequence": "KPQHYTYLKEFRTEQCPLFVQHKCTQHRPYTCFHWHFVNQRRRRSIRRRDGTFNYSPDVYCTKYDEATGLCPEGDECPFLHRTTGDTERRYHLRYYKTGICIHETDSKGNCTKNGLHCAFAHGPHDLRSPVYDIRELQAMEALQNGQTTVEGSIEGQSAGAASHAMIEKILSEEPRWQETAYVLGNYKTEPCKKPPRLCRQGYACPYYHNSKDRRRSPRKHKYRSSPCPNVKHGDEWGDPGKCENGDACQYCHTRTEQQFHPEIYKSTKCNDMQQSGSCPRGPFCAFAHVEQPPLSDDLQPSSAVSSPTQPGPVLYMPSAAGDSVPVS", "experiment": "nsRBNS (natural sequence RNA bind-n-seq); RBNS binding buffer (assumed for nsRBNS): 25 mM Tris pH 7.5, 150 mM KCl, 3 mM MgCl2, 0.01% Triton X-100, 500 ug/ml BSA, 20 U/ml SUPERase-In, 4 C; UNK is unkempt and MSI1 is Musashi-1; names of the RNAs are library labels; protein concentration not given here; high values mean tight binding", "units": {"binding signal": "enrichment R"}, "values": [{"binder": "B1", "binding signal": 0.576}, {"binder": "B2", "binding signal": 0.818}, {"binder": "B3", "binding signal": 0.582}, {"binder": "B4", "binding signal": 0.728}, {"binder": "B5", "binding signal": 0.954}, {"binder": "B6", "binding signal": 0.759}, {"binder": "B7", "binding signal": 0.264}, {"binder": "B8", "binding signal": 0.962}, {"binder": "B9", "binding signal": 1.58}, {"binder": "B10", "binding signal": 1.32}, {"binder": "B11", "binding signal": 0.87}, {"binder": "B12", "binding signal": 0.343}, {"binder": "B13", "binding signal": 1.38}, {"binder": "B14", "binding signal": 0.619}]}]}
